Experimental data as given in patent US20240392031A1 (BICARA THERAPEUTICS, published 2024).

Experiments:
Assay in all cases: cell-based or functional assay
[1] = target: T1, human IL-12 receptor (hIL-12R), heterodimer of hIL-12Rβ1 and hIL-12Rβ2 (human, UniProt P42701 24-662; Q99665 24-862)
[2] = target: T1, human IL-12 receptor (hIL-12R), …; remark: listed apart in the source
[3] = target: T1, human IL-12 receptor (hIL-12R), …; remark: listed apart in the source
[4] = target: T1, human IL-12 receptor (hIL-12R), …; remark: listed apart in the source

B1: BCA356, anti-hCAIX hIL-12 fusion protein (hIL-12p40 W37A/F82A/K219A, Variant O) (other)
heavy 1: EVRLVESGGGLVKPGGSLRLSCAASGFTFSNYYMSWIRQAPEKRLELVSAINSDGGITYYLDTVKGRFTISRDNAKNSLYLQMNSLRAEDTALFYCARHRSGYFSMDYWGQGTSVTVSS[human IgG1 constant region with changes left out here]GGGGSGGGGSGGGGSIWELKKDVYVVELDAYPDAPGEMVVLTCDTPEEDGITWTLDQSSEVLGSGKTLTIQVKEAGDAGQYTCHKGGEVLSHSLLLLHKKEDGIWSTDILKDQKEPKNKTFLRCEAKNYSGRFTCWWLTTISTDLTFSVKSSRGSSDPQGVTCGAATLSAERVRGDNKEYEYSVECQEDSACPAAEESLPIEVMVDAVHKLAYENYTSSFFIRDIIKPDPPKNLQLKPLKNSRQVEVSWEYPDTWSTPHSYFSLTFCVQVQGKSKREKKDRVFTDKTSATVICRKNASISVRAQDRYYSSSWSEWASVPCS
heavy 2: EVRLVESGGGLVKPGGSLRLSCAASGFTFSNYYMSWIRQAPEKRLELVSAINSDGGITYYLDTVKGRFTISRDNAKNSLYLQMNSLRAEDTALFYCARHRSGYFSMDYWGQGTSVTVSSASTKGPSVFPLAPSSKSTSGGTAALGCLVKDYFPEPVTVSWNSGALTSGVHTFPAVLQSSGLYSLSSVVTVPSSSLGTQTYICNVNHKPSNTKVDKKV[human IgG1 Fc with changes left out here]GGGGSGGGGSGGGGSRNLPVATPDPGMFPCLHHSQNLLRAVSNMLQKARQTLEFYPCTSEEIDHEDITKDKTSTVEACLPLELTKNESCLNSRETSFITNGSCLASRKTSFMMALCLSSIYEDLKMYQVEFKTMNAKLLMDPKRQIFLDQNMLAVIDELMQALNFNSETVPQKSSLEEPDFYKTKIKLCILLHAFRIRAVTIDRVMSYLNAS
light: EIVMTQSPATLSVSPGERATLSCKASQNVVSAVAWYQQKPGQSPRLLIYSASNRYTGIPARFSGSGSGTEFTLTISSLQSEDFAAYYCQQYRNYPWTFGGGTKVEIKRTVAAPSVFIFPPSDEQLKSGTASVVCLLNNFYPREAKVQWKVDNALQSGNSQESVTEQDSKDSTYSLSSTLTLSKADYEKHKVYACEVTHQGLSSPVTKSFNRGEC
For B1, the “IL-12 activity in HEK-IL-12 reporter assay (SEAP), fold attenuation compared to BCA351 (wild type IL-12 fusion); average of three independent experiments” value [1] was roughly 7000 fold, the “Fold Attenuation (Over Fc-IL-12 Control); HEK-Blue IL-12 reporter assay” value [2] was 7300 fold and the “HEK-IL12 reporter assay Attenuation (summary table)” value [3] was 7300 fold. The “HEK IL-12 Reporter Assay (Ratio of EC50)” value [4] was 7300 ratio and the “PSTAT (CD8) flow cytometry - percent reduction at 16.9 nM” value [4] was 91.1%.
